Data reported in patent US20110021424A1 (published 2011).
Positions count from the first letter of the chain named.

How the values were obtained:
Assay in all cases: dot blot
[1] = molecular target: T1, hemopexin (Agilent) (human, UniProt P02790 24-462)
T1 sequence (looked up): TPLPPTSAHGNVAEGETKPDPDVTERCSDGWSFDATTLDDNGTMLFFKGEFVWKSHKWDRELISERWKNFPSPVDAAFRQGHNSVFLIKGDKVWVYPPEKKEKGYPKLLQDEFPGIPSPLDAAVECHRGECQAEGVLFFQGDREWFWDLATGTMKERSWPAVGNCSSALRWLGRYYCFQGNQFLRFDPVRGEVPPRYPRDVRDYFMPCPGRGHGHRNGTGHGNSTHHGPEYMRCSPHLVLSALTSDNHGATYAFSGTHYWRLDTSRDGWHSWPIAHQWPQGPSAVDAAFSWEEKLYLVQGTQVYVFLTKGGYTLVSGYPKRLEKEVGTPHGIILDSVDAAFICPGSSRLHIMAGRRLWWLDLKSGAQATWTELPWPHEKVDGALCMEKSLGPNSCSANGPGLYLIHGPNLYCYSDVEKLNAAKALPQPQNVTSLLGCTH

[2] = molecular target: T2, haptoglobulin (RDI, #RDI-SCP-119-1) (human, UniProt P00738 19-406, limits assumed)
T2 sequence (looked up): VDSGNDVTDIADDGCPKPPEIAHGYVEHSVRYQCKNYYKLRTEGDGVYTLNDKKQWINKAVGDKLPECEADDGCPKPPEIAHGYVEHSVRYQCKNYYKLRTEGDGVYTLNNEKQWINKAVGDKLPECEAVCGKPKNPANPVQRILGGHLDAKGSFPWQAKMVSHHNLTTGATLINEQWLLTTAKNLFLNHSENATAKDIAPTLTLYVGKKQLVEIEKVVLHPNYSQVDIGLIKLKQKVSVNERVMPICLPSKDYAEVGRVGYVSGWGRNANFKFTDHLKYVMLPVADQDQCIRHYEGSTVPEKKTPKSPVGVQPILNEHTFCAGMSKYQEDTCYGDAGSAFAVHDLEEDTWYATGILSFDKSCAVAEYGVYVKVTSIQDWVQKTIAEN

[3] = molecular target: neutravidin (Pierce, #31000) (UniProt P02701 25-152)
[4] = molecular target: T3, alpha-1 antichymotrypsin (RDI, #RDI-SCP-159-0) (human, UniProt P01011 24-423)
T3 sequence (looked up): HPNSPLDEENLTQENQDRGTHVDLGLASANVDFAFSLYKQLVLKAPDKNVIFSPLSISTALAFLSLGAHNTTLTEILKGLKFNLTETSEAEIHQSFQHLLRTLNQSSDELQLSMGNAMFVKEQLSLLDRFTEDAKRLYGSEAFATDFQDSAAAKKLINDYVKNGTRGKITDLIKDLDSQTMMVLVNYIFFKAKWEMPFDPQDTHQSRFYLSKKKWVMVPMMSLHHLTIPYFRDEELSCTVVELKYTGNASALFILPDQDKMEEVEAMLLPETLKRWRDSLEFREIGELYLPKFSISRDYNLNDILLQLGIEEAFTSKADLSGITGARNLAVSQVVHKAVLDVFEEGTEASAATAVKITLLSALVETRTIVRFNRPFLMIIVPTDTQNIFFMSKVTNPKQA

[5] = molecular target: streptavidin (Pierce, #21122) (UniProt P22629 37-163, limits assumed)
[6] = molecular target: transthyretin (Sigma, #P1742) (human, UniProt P02766 21-147)
[7] = molecular target: T4, fibrinogen (Enzyme research, #031015E) (human, UniProt P02671 20-630; P02675 31-491; P02679 27-433, Native plasma fibrinogen is a disulfide-linked dimer of alpha-beta-gamma trimers, (AαBβγ)2, and is glycosylated. One copy of each chain is given.)
T4 construct: Several chains
T4 sequence (alpha): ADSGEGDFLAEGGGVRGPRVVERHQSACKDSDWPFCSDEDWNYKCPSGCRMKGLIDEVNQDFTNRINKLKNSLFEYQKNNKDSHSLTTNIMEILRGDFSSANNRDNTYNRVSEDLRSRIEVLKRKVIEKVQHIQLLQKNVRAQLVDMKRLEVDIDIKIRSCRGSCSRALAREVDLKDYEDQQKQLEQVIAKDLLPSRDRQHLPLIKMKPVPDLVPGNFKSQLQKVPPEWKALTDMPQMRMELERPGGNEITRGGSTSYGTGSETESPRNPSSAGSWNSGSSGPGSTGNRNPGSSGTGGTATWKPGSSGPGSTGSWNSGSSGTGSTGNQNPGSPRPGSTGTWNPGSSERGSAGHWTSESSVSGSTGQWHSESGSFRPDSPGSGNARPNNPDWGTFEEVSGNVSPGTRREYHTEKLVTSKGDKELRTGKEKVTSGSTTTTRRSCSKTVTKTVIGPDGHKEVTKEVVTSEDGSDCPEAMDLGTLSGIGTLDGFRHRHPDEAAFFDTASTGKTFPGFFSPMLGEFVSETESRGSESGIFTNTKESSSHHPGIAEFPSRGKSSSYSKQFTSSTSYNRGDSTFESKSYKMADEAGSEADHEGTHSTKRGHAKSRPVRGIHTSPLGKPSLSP
T4 sequence (beta): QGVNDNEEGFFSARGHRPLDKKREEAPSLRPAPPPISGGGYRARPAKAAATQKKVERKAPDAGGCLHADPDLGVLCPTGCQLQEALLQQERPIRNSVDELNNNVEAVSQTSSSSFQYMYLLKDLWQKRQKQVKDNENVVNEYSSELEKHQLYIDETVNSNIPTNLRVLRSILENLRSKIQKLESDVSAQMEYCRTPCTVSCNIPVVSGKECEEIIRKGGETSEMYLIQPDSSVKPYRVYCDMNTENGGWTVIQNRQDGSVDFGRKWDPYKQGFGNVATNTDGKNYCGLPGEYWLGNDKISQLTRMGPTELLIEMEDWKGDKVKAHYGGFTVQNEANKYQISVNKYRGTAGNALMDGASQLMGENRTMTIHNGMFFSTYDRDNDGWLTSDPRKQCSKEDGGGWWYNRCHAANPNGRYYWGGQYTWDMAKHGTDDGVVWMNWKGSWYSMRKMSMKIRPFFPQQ
T4 sequence (gamma): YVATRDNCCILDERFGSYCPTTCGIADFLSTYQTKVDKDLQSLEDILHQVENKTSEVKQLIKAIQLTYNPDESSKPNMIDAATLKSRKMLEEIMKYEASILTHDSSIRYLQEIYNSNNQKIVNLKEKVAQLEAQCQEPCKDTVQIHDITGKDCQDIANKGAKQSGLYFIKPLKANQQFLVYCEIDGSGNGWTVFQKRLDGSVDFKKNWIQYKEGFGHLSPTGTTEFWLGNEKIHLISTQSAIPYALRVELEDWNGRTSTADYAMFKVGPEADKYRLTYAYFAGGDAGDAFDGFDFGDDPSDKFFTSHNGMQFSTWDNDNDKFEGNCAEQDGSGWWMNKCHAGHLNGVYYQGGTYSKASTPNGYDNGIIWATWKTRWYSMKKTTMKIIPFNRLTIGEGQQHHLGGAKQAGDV

Measured: binding result

B1: His6-(Z02465)2-Cys (designed binder)
chain: MGSSHHHHHHLQVDNKFNKELIEAAAEIDALPNLNRRQWNAFIKSLVDDPSQSANLLAEAKKLNDAQAPKVDNKFNKELIEAAAEIDALPNLNRRQWNAFIKSLVDDPSQSANLLAEAKKLNDAQAPKVDC
notes: also called Z02465 (dimer)
no binding: all assays above

B2: His6-(Z02483)2-Cys (designed binder)
chain: B1 chain with I22V, E23K, I80V, E81K
notes: also called Z02483 (dimer)
no binding: all assays above
